# Test results as given in the supplement of paper PMC8728848.
# The other results are listed elsewhere or left out.
# B1: PX9937J-pdi-523-26-523 (Parabacteroides distasonis) (protein)
# chain: EPVSSISDANYWKSPDLFKAFNIGLHGLLRSQSSYNIFVLGEPRSDIYGDQPFGGEATQGVERFSYNTINAEFTGISNFANFYTTLNQINLMIRRTNETDLLGEAEKNYYLGQAYGLRAYIYFHLLRSWGDVIITTEPTLGSELDISHLDKAASPASEVMDLIKKDIDASEKAFGGDYSYKQGKCYWSKPATLMLKGEVYLWSGRQMGGGTGDYTVAKTALQDLQQNGNLKLQEKFTDVFSFNNKENSEMIFALHSGKEDDFMMWRDYNWRNNMVPQREYMAGYCDETGTPFLEIPGYNLQGLMRYQVKKDHYLKSFREGDTRLKGTLKAVYKKHEDGTLEYIAPIQYKFQGTTLEGSNERSWYDDYPIYRYADALLLLAEAKALLGEDPSTEINAVRERAYGSEYFNAHKNEVAYPNDKGSFYNDNPFEAGDENVMEAILKERLREFFFEGKRWYDLRRFGKDYVLKYTTAQESRLLWPINEGALTNNPALKQTPGY
# Assays:
# Experiment in all cases: glycan array binding signal (z-score within array); higher = stronger binding
# Conditions in all cases: glycan notation: IUPAC condensed, linker removed
# [1] = target: GlcNAc(a1-4)Gal(b1-3)GlcNAc
# Outline: (§1)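 Arrays were curated from the Consortium for Functional Glycomics database, 3228 in total, and kept only where the protein sequence was available. Binding is expressed as a within-array Z-score. This score was averaged across arrays of the same protein sequence at different concentrations or buffers and across linkers, and negative values can be read as non-binding.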
# [2] = target: GlcNAc(a1-4)Gal(b1-4)GalNAc
# Outline: as §1
# [3] = target: GlcNAc(a1-4)Gal(b1-4)GlcNAc
# Outline: as §1
# [4] = target: GlcNAc(a1-4)Gal(b1-4)GlcNAc(b1-3)Gal(b1-4)Glc
# Outline: as §1
# [5] = target: GlcNAc(a1-4)Gal(b1-4)GlcNAc(b1-3)Gal(b1-4)GlcNAc
# Outline: as §1
# [6] = target: GlcNAc(a1-4)Gal(b1-4)GlcNAc(b1-3)Gal(b1-4)GlcNAc(b1-3)Gal(b1-4)GlcNAc
# Outline: as §1
# [7] = target: GlcNAc(a1-4)Gal(b1-4)GlcNAc(b1-3)Gal(b1-4)[Fuc(a1-3)]GlcNAc(b1-3)Gal(b1-4)[Fuc(a1-3)]GlcNAc
# Outline: as §1
# [8] = target: GlcNAc(a1-6)Gal(b1-4)GlcNAc
# Outline: as §1
# [9] = target: GlcNAc(b1-2)Gal(b1-3)GalNAc
# Outline: as §1
# [10] = target: GlcNAc(b1-2)Man(a1-3)[GlcNAc(b1-2)Man(a1-6)]Man(b1-4)GlcNAc(b1-4)GlcNAc
# Outline: as §1
# [11] = target: GlcNAc(b1-2)Man(a1-3)[GlcNAc(b1-2)Man(a1-6)]Man(b1-4)GlcNAc(b1-4)[Fuc(a1-6)]GlcNAc
# Outline: as §1
# [12] = target: GlcNAc(b1-2)Man(a1-3)[GlcNAc(b1-4)][GlcNAc(b1-2)Man(a1-6)]Man(b1-4)GlcNAc(b1-4)GlcNAc
# Outline: as §1
# [13] = target: GlcNAc(b1-2)Man(a1-3)[GlcNAc(b1-4)][GlcNAc(b1-2)Man(a1-6)]Man(b1-4)GlcNAc(b1-4)[Fuc(a1-6)]GlcNAc
# Outline: as §1
# [14] = target: GlcNAc(b1-2)[GlcNAc(b1-4)]Man(a1-3)[GlcNAc(b1-2)Man(a1-6)]Man(b1-4)GlcNAc(b1-4)GlcNAc
# Outline: as §1
# [15] = target: GlcNAc(b1-2)[GlcNAc(b1-4)]Man(a1-3)[GlcNAc(b1-4)][GlcNAc(b1-2)Man(a1-6)]Man(b1-4)GlcNAc(b1-4)GlcNAc
# Outline: as §1
# [16] = target: GlcNAc(b1-2)[GlcNAc(b1-4)]Man(a1-3)[GlcNAc(b1-4)][GlcNAc(b1-2)[GlcNAc(b1-6)]Man(a1-6)]Man(b1-4)GlcNAc(b1-4)GlcNAc
# Outline: as §1
# [17] = target: GlcNAc(b1-2)[GlcNAc(b1-4)]Man(a1-3)[GlcNAc(b1-4)][GlcNAc(b1-2)[GlcNAc(b1-6)]Man(a1-6)]Man(b1-4)GlcNAc(b1-4)[Fuc(a1-6)]GlcNAc
# Outline: as §1
# [18] = target: GlcNAc(b1-2)[GlcNAc(b1-6)]Man(a1-6)[GlcNAc(b1-2)Man(a1-3)]Man(b1-4)GlcNAc(b1-4)GlcNAc
# Outline: as §1
# [19] = target: GlcNAc(b1-2)[GlcNAc(b1-6)]Man(a1-6)[GlcNAc(b1-2)Man(a1-3)]Man(b1-4)GlcNAc(b1-4)[Fuc(a1-6)]GlcNAc
# Outline: as §1
# [20] = target: GlcNAc(b1-2)[GlcNAc(b1-6)]Man(a1-6)[GlcNAc(b1-4)][GlcNAc(b1-2)Man(a1-3)]Man(b1-4)GlcNAc(b1-4)GlcNAc
# Outline: as §1
# GlcNAc(b1-3)Fuc = target: GlcNAc(b1-3)Fuc
# Outline: as §1
# GlcNAc(b1-3)Gal = target: GlcNAc(b1-3)Gal
# Outline: as §1
# [21] = target: GlcNAc(b1-3)Gal(b1-3)GalNAc
# Outline: as §1
# GlcNAc(b1-3)Gal(b1-4)Glc = target: GlcNAc(b1-3)Gal(b1-4)Glc
# Outline: as §1
# [22] = target: GlcNAc(b1-3)Gal(b1-4)GlcNAc
# Outline: as §1
# [23] = target: GlcNAc(b1-3)Gal(b1-4)GlcNAc(b1-2)Man(a1-3)[GlcNAc(b1-3)Gal(b1-4)GlcNAc(b1-2)Man(a1-6)]Man(b1-4)GlcNAc(b1-4)GlcNAc
# Outline: as §1
# [24] = target: GlcNAc(b1-3)Gal(b1-4)GlcNAc(b1-2)Man(a1-3)[GlcNAc(b1-3)Gal(b1-4)GlcNAc(b1-2)Man(a1-6)]Man(b1-4)GlcNAc(b1-4)[Fuc(a1-6)]GlcNAc
# Outline: as §1
# [25] = target: GlcNAc(b1-3)Gal(b1-4)GlcNAc(b1-2)[GlcNAc(b1-3)Gal(b1-4)GlcNAc(b1-6)]Man(a1-6)[GlcNAc(b1-3)Gal(b1-4)GlcNAc(b1-2)Man(a1-3)]Man(b1-4)GlcNAc(b1-4)GlcNAc
# Outline: as §1
# [26] = target: GlcNAc(b1-3)Gal(b1-4)GlcNAc(b1-3)Gal(b1-4)GlcNAc
# Outline: as §1
# [27] = target: GlcNAc(b1-3)Gal(b1-4)GlcNAc(b1-3)Gal(b1-4)GlcNAc(b1-2)Man(a1-3)[GlcNAc(b1-3)Gal(b1-4)GlcNAc(b1-3)Gal(b1-4)GlcNAc(b1-2)Man(a1-6)]Man(b1-4)GlcNAc(b1-4)GlcNAc
# Outline: as §1
# [28] = target: GlcNAc(b1-3)Gal(b1-4)GlcNAc(b1-3)Gal(b1-4)GlcNAc(b1-2)Man(a1-3)[GlcNAc(b1-3)Gal(b1-4)GlcNAc(b1-3)Gal(b1-4)GlcNAc(b1-2)Man(a1-6)]Man(b1-4)GlcNAc(b1-4)[Fuc(a1-6)]GlcNAc
# Outline: as §1
# [29] = target: GlcNAc(b1-3)Gal(b1-4)GlcNAc(b1-3)Gal(b1-4)GlcNAc(b1-2)[GlcNAc(b1-3)Gal(b1-4)GlcNAc(b1-3)Gal(b1-4)GlcNAc(b1-6)]Man(a1-6)[GlcNAc(b1-3)Gal(b1-4)GlcNAc(b1-3)Gal(b1-4)GlcNAc(b1-2)Man(a1-3)]Man(b1-4)GlcNAc(b1-4)[Fuc(a1-6)]GlcNAc
# Outline: as §1
# [30] = target: GlcNAc(b1-3)Gal(b1-4)GlcNAc(b1-3)Gal(b1-4)GlcNAc(b1-3)Gal(b1-4)GlcNAc(b1-2)Man(a1-3)[GlcNAc(b1-3)Gal(b1-4)GlcNAc(b1-3)Gal(b1-4)GlcNAc(b1-3)Gal(b1-4)GlcNAc(b1-2)Man(a1-6)]Man(b1-4)GlcNAc(b1-4)GlcNAc
# Outline: as §1
# [31] = target: GlcNAc(b1-3)Gal(b1-4)GlcNAc(b1-3)Gal(b1-4)GlcNAc(b1-3)Gal(b1-4)GlcNAc(b1-2)Man(a1-3)[GlcNAc(b1-3)Gal(b1-4)GlcNAc(b1-3)Gal(b1-4)GlcNAc(b1-3)Gal(b1-4)GlcNAc(b1-2)Man(a1-6)]Man(b1-4)GlcNAc(b1-4)[Fuc(a1-6)]GlcNAc
# Outline: as §1
# [32] = target: GlcNAc(b1-3)Gal(b1-4)GlcNAc(b1-3)Gal(b1-4)GlcNAc(b1-3)Gal(b1-4)GlcNAc(b1-2)[GlcNAc(b1-3)Gal(b1-4)GlcNAc(b1-3)Gal(b1-4)GlcNAc(b1-3)Gal(b1-4)GlcNAc(b1-6)]Man(a1-6)[GlcNAc(b1-3)Gal(b1-4)GlcNAc(b1-3)Gal(b1-4)GlcNAc(b1-3)Gal(b1-4)GlcNAc(b1-2)Man(a1-3)]Man(b1-4)GlcNAc(b1-4)[Fuc(a1-6)]GlcNAc
# Outline: as §1
# [33] = target: GlcNAc(b1-3)Gal(b1-4)GlcNAc(b1-3)Gal(b1-4)GlcNAc(b1-3)Gal(b1-4)GlcNAc(b1-3)Gal(b1-4)GlcNAc(b1-2)Man(a1-3)[GlcNAc(b1-3)Gal(b1-4)GlcNAc(b1-3)Gal(b1-4)GlcNAc(b1-3)Gal(b1-4)GlcNAc(b1-3)Gal(b1-4)GlcNAc(b1-2)Man(a1-6)]Man(b1-4)GlcNAc(b1-4)GlcNAc
# Outline: as §1
# [34] = target: GlcNAc(b1-3)Gal(b1-4)GlcNAc(b1-3)Gal(b1-4)GlcNAc(b1-3)Gal(b1-4)GlcNAc(b1-3)Gal(b1-4)GlcNAc(b1-2)Man(a1-3)[GlcNAc(b1-3)Gal(b1-4)GlcNAc(b1-3)Gal(b1-4)GlcNAc(b1-3)Gal(b1-4)GlcNAc(b1-3)Gal(b1-4)GlcNAc(b1-2)Man(a1-6)]Man(b1-4)GlcNAc(b1-4)[Fuc(a1-6)]GlcNAc
# Outline: as §1
# [35] = target: GlcNAc(b1-3)Gal(b1-4)GlcNAc(b1-3)Gal(b1-4)GlcNAc(b1-3)Gal(b1-4)GlcNAc(b1-3)Gal(b1-4)GlcNAc(b1-2)[GlcNAc(b1-3)Gal(b1-4)GlcNAc(b1-3)Gal(b1-4)GlcNAc(b1-3)Gal(b1-4)GlcNAc(b1-3)Gal(b1-4)GlcNAc(b1-6)]Man(a1-6)[GlcNAc(b1-3)Gal(b1-4)GlcNAc(b1-3)Gal(b1-4)GlcNAc(b1-3)Gal(b1-4)GlcNAc(b1-3)Gal(b1-4)GlcNAc(b1-2)Man(a1-3)]Man(b1-4)GlcNAc(b1-4)[Fuc(a1-6)]GlcNAc
# Outline: as §1
binder,measurement,setting,value
B1,glycan array binding signal (z-score),[1],-0.561
same,glycan array binding signal (z-score),[2],0.707
same,glycan array binding signal (z-score),[3],0.513
same,glycan array binding signal (z-score),[4],-0.799
same,glycan array binding signal (z-score),[5],-0.296
same,glycan array binding signal (z-score),[6],-0.214
same,glycan array binding signal (z-score),[7],1.32
same,glycan array binding signal (z-score),[8],-0.283
same,glycan array binding signal (z-score),[9],-0.438
same,glycan array binding signal (z-score),[10],-0.136
same,glycan array binding signal (z-score),[11],-0.729
same,glycan array binding signal (z-score),[12],-0.434
same,glycan array binding signal (z-score),[13],-0.256
same,glycan array binding signal (z-score),[14],0.146
same,glycan array binding signal (z-score),[15],-0.456
same,glycan array binding signal (z-score),[16],-0.416
same,glycan array binding signal (z-score),[17],-0.488
same,glycan array binding signal (z-score),[18],0.524
same,glycan array binding signal (z-score),[19],0.003
same,glycan array binding signal (z-score),[20],0.018
same,glycan array binding signal (z-score),GlcNAc(b1-3)Fuc,-0.027
same,glycan array binding signal (z-score),GlcNAc(b1-3)Gal,-0.322
same,glycan array binding signal (z-score),[21],0.084
same,glycan array binding signal (z-score),GlcNAc(b1-3)Gal(b1-4)Glc,-0.244
same,glycan array binding signal (z-score),[22],-0.088
same,glycan array binding signal (z-score),[23],-0.352
same,glycan array binding signal (z-score),[24],0.347
same,glycan array binding signal (z-score),[25],0.594
same,glycan array binding signal (z-score),[26],-0.568
same,glycan array binding signal (z-score),[27],0.128
same,glycan array binding signal (z-score),[28],0.395
same,glycan array binding signal (z-score),[29],0.593
same,glycan array binding signal (z-score),[30],-0.29
same,glycan array binding signal (z-score),[31],-0.196
same,glycan array binding signal (z-score),[32],-0.387
same,glycan array binding signal (z-score),[33],1.88
same,glycan array binding signal (z-score),[34],-0.121
same,glycan array binding signal (z-score),[35],4.67
